PubChem BioAssay AID485297 (National Center for Advancing Translational Sciences (NCATS), 2010)
About 9,100 (2.8%) of roughly 320,000 compounds were called active. Inconclusive results, whose numbers are uncertain, are shown with a selection of clear calls. Calls follow the shape of the dose curve; as a rule, active = well fitted activation curve with a large enough effect; inconclusive = small, poorly fitted or top-dose-only effect; inactive = no such curve, though single readings can be large or run the other way. Potencies beside an inconclusive call are fits to weak or partial responses and may not hold up.

experiment: qHTS Assay for Rab9 Promoter Activators; details: Huh7 Rab9 promoter-luciferase reporter, luminescence, 24 h; series mostly up to 9.22 µM; activation, negative = inhibition: at the top concentration; also: nearly all actives have a fitted effect of over 60% in size; as to activation, negative = inhibition: % of control where 0% means no effect
Outline: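 Measured in stably transfected Huh7 cells bearing a Rab9 promoter–luciferase construct: 24 h compound treatment at 37 °C, followed by luminescence detection.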
Potency is read from the fitted curve at half-maximal effect; tags tell the direction and shape of the fitted curve.

Potency, inconclusive:
Cc1cc(C(=O)Cn2cnc3ccccc3c2=O)c(C)n1C1CC1 2.82 µM [activator, partial curve]
O=C(/C=C/Nc1ccc([N+](=O)[O-])cc1)c1ccc(Br)cc1 3.55 µM [activator, single point]
N#Cc1cc2c(N)c(C(=O)Nc3ccccc3)sc2nc1N 5.62 µM [activator, single point]
CC(=O)c1cnc(-c2cccc(Cl)c2)s1 5.62 µM [activator, single point]
NC(=O)c1ccccc1NC(=O)COc1ccc(Cl)cc1 3.55 µM [activator, partial curve]
CCOC(=O)c1ccc(-c2ccc(/C=N/NC(=O)CN(c3ccccc3Cl)S(C)(=O)=O)o2)cc1 4.47 µM [activator, partial curve]
COc1cc2c(cc1NC(=O)C(C)OC(=O)C1CC(=O)N(Cc3ccco3)C1)oc1ccccc12 (stereo not drawn) 2.24 µM [activator, partial curve]
COc1cccc([C@@H]2Oc3ccc(OC)cc3C(=O)[C@H]2O)c1 5.01 µM [activator, single point]
O=C(Nc1ccc(Cl)cc1Cl)NC1CCCC1 3.98 µM [activator, single point]
Cc1c(Cl)c([N+](=O)[O-])nn1CCCC(=O)NCCc1ccccc1 2.82 µM [activator, partial curve]
O=C(Nc1ccccc1C(F)(F)F)c1cc(-c2cccc(O)c2)on1 5.01 µM [activator, single point]
COc1ccc(-c2csc(Nc3cc(C)ccn3)n2)cc1OC 3.16 µM [activator, partial curve]
O=C(c1ccc(-c2ccc([N+](=O)[O-])cc2)o1)N1CCCCCCC1 0.708 µM [activator, full curve]
COc1ccc(-c2cc3ncccc3cn2)cc1 0.631 µM [activator, partial curve]
Cc1[nH]n(-c2ccccc2)c(=O)c1N=Nc1ccc(F)cc1 3.16 µM [activator, single point]
Cc1ccn2c(NC3CCCC3)c(-c3cccs3)nc2c1 2.24 µM [activator, single point]
Cc1ccccc1Nc1c(-c2ccc(N3CCOCC3)cc2)nc2cnccn12 3.55 µM [activator, partial curve]
Cc1ccc(C(C)C)c(OCc2nc(-c3nonc3N)no2)c1 3.55 µM [activator, partial curve]
COc1ccc(C(=O)Cc2cc(OC)c(OC)cc2[N+](=O)[O-])cc1 4.47 µM [activator, partial curve]
CCn1c(SCC(O)c2ccccc2)nnc1-c1ccccc1 (stereo not drawn) 3.55 µM [activator, single point]
C=C(C)CSc1nnc(-c2ccc(OC)cc2)n1N 2.51 µM [activator, partial curve]
CCCn1cc(NC(=O)c2cc(-c3ccccc3)on2)cn1 5.62 µM [activator, single point]
CC(C)(C)c1ccc(C(=O)Nc2cccc3c(=O)[nH][nH]c(=O)c23)cc1 1.12 µM [activator, full curve, poor fit]
CC(C)(C)C(=O)Nc1cccc(-c2nc3ccccc3c(=O)o2)c1 5.62 µM [activator, single point]
O=C(NCCO)C(=O)Nc1cc2c3c(c1)CC(=O)N3CCC2 1.12 µM [activator, single point]
O=C(O)c1cccc(NC(=S)NC(=O)c2ccc(-c3ccc(Cl)cc3)o2)c1 5.62 µM [activator, single point]
C=CCOc1ccc(C(=O)NC2CCCCC2)cc1 3.16 µM [activator, partial curve]
FC(F)Oc1ccc(NC(=S)N2CCc3ccccc32)cc1 1.41 µM [activator, partial curve]
Clc1ccc(-n2ncc3c(NCCCn4ccnc4)ncnc32)cc1 2.82 µM [activator, partial curve]
O=C(Nc1nnc(Cc2ccccc2F)s1)Nc1ccccc1F 3.55 µM [activator, single point]
CCCOc1ccc(C(=O)CCC(=O)OC(C)C(=O)Nc2ccc(NC(C)=O)cc2)cc1 (stereo not drawn) 3.55 µM [activator, partial curve]
COc1ccc(-c2ccc(-c3noc(C(C)C)n3)c(OC)n2)cc1 2.82 µM [activator, partial curve]
COc1ccc(OC)c(NC(=O)c2[nH]c(C)c(C(C)=O)c2C)c1 6.31 µM [activator, single point]
O=C(Cn1cccc1C(=O)c1ccccc1)NCc1ccccc1Cl 2.82 µM [activator, partial curve]
O=C(c1cc(-c2ccc(F)cc2)on1)N1CCCc2ccccc21 4.47 µM [activator, single point]
O=c1[nH]c(-c2ccccn2)nc2sc(-c3ccccc3)cc12 0.631 µM [activator, partial curve, poor fit]
COc1ccc(NC(=O)Nc2nnc(C(C)(C)C)s2)cc1 5.62 µM [activator, partial curve, poor fit]
Cc1ccc(SCC(=O)c2cc(C)c(OC(=S)N(C)C)c(C)c2)cc1 2.24 µM [activator, partial curve]
Cc1csc(NC(=O)c2ccc(Cl)nc2)n1 3.98 µM [activator, partial curve]
Cc1nc2ccccn2c1C(=O)/C=C/c1ccc(F)cc1 2.24 µM [activator, partial curve]

Potency, active:
O=C(Nc1ccc2c(c1)OCO2)Nc1ccccn1 0.891 µM
O=C(c1cc(-c2ccc(Cl)c(Cl)c2)on1)N1CCOCC1 2.82 µM
COCc1cc(C)nc(N/N=C/c2ccc(-c3ccc(Cl)cc3[N+](=O)[O-])o2)c1C#N 3.98 µM
CC(=O)NC12CC3CC(C1)CC(C(=O)OCC(=O)c1ccc4c(c1)OCCO4)(C3)C2 0.1 µM
Cc1cc(C(=O)Nc2ccc(N3CCCCC3)cc2)no1 0.282 µM
COc1ccc(C(=O)Nc2ccc(F)cc2F)cc1 2.51 µM
Nc1nc(CSc2ncn(-c3ccccc3)n2)cs1 1.26 µM
Cc1nc2ccc(NC(=O)Cc3c(F)cccc3Cl)cc2s1 2.51 µM
C/C(=N/NC(=O)c1cc(C(C)C)[nH]n1)c1cccs1 0.501 µM
Cn1cccc1C(=O)C(=O)Nc1ccc(F)c(F)c1 1.26 µM
C/C(=N/NC(=O)c1ccc(C)s1)c1cccc(NC(=O)COc2ccc(Cl)cc2Cl)c1 0.501 µM
CCCCOc1ccc(C(=S)N2CCC(C(N)=O)CC2)cc1 4.47 µM
O=C(Nc1ccncc1)c1ccc2ccccc2c1 3.55 µM
Cc1ccc(Nc2nc(COC(=O)C3CC3)cs2)cc1 3.16 µM

activation, negative = inhibition, inactive:
COc1ccc(CNC(=O)c2cc3ccccc3oc2=O)cc1 -0.796%
CC(C(=O)O)N1C(=O)C2C3CC(C2C1=O)C1C(c2ccccc2)c2sc(=O)[nH]c2SC31 (stereo not drawn) -1.58%
CC(C(=O)N(C)C1CCCCC1)N1CCC(C(N)=O)CC1 (stereo not drawn) 0.657%
COc1cccc(-c2nnc(SCC(=O)N3CC(C)CC(C)C3)o2)c1 (stereo not drawn) -8.86%
COc1ccc(-c2nc(CCl)cs2)cc1OC 11.6%
O=C(N/N=C/c1ccc(Br)cc1)c1ccccc1-n1cccc1 29%
Cc1c(C=O)c2ccccn2c1C(=O)c1ccccc1 -3.5%
NC(=S)NC(=O)/C=C/c1ccccc1 -0.142%
Cc1ccc(Nc2nc(N3CCOCC3)nc(N3CCOCC3)n2)cc1Cl 0.834%
Cc1ccc(S(=O)(=O)N2CCOCC2)cc1C(=O)NC(=S)N1CC(C)OC(C)C1 (stereo not drawn) -3.51%
CCCCNC(=O)/C=C1\Sc2ccccc2NC1=O -0.935%
COc1ccc(N2C(=O)C(CC(=O)Nc3ccccc3)N(Cc3ccccn3)C2=S)cc1 (stereo not drawn) -8.84%
COc1ccc(C(C)=O)cc1COC(=O)c1cc2ccccc2cc1O -3.19%
O=C(CCc1ccccc1)OCCOC(=O)CCc1ccccc1 -0.177%
CC(C)Oc1ccc(C(=O)OCC(=O)N2CCCc3ccccc32)cc1 3.46%
Cc1csc(N(C(=O)c2cccc(S(=O)(=O)N(C)C)c2)c2ccccc2)n1 7.27%
COc1cccc(C2C=C(Nc3ccccc3)C(=O)N2c2ccccc2)c1 (stereo not drawn) -4.26%
O=C(Nc1cccc(Oc2ccc3c(c2)C(=O)NC3=O)c1)c1cccs1 0.974%
CCOC(=O)C1=C(C)NC(=S)NC1c1ccc(-c2cccc(Cl)c2C)o1 (stereo not drawn) -12.5%
CCOCCCNC(=O)c1cc2c(s1)-c1ccccc1SC2 4.91%
Cc1ccc(C(=O)O)cc1NC(=S)NC(=O)Cc1ccccc1 -0.97%
FC(F)(F)COc1nc(OCC(F)(F)F)nc(N2CCN(c3ccccc3)CC2)n1 0.307%
CCC(C(=O)NCCC(C)C)n1ccc2cc(S(=O)(=O)N3CCCCC3)ccc21 (stereo not drawn) -12.2%
O=[N+]([O-])c1cccc(CSc2nnc(Cc3ccccc3)n2-c2ccc(F)cc2)c1 1.4%
